Our source for the binding signal values is article PMC12136788.

First the molecules themselves.
T1: UNK ZnF1-3 (human, UniProt Q9C0B0 31-174)
T1 sequence: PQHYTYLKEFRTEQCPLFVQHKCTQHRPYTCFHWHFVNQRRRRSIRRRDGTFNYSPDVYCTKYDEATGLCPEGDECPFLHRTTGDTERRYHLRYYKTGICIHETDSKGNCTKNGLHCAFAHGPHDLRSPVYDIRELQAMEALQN

B1: chr10:33214929:33214930:-_ENSG00000150093_ENST00000302278|hu_hu|hu_hu_hu_mus_True|28_88 (ssRNA)
RNA: GGGAGUUCUACAGUCCGACGAUCAACAAGUUCAUUGAAAAACUCUCCUUUAUUAGUAAGACUAAGCACAUUUUUGUAGCUAAAUGGGCUGGUGCAGUUUUGUUCACUUGUGCAAGGAUUUCUUAGCUUUGCUGGGGUUGUGCUCAACAGAGGAUUGAGCAUCA
B2: chr7:30889366:30889367:+_ENSMUSG00000049421_ENSMUST00000108200|mus_hu|FALSE|FALSE (ssRNA)
RNA: GGGAGUUCUACAGUCCGACGAUCUGAAGAAUCAAUGACUGUUCAGAGGAAAUACUUUGUUUCCUAAAUUUUCCCUCAGUCUGUCUUUUCACAGAGAAAGAUGAGACUUAACUUACAAGUCUUUCAUGUUGCGUCUUUAUCUGUCAACAGAGGAUUGAGCAUCA
B3: chr4:25749455:25749456:-_ENSG00000091490_ENST00000264868|hu_hu|hu_hu_hu_mus_False|48_58 (ssRNA)
RNA: GGGAGUUCUACAGUCCGACGAUCGCACUAUGACCUCUAGAAAAAUCCACAGGGGGAAAAAAUGUAAACCAAUGUACAAAGCUAUUGCCCUCCCUGCGUGUGGAGUGUUUGUCUCAAGGCUCCUUCUAGCUGCUGGAUUUGGGACAACAGAGGAUUGAGCAUCA
B4: 88989066_88989186_4604_CDS_ENSMUSG00000036606_ENSMUST00000109331|mouse|control|control (ssRNA)
RNA: GGGAGUUCUACAGUCCGACGAUCACUGUCUGGCUUGGGCCAGCAGGAGCAGGGCUGAGUACGGUACACUUGGUCGAUGAUCUUCUCUUUGACCUGAGAGAUGGUGUCACAGUUGAGGACCUUAACCGGGAUGGCAUCGAUCCCCAACAGAGGAUUGAGCAUCA
B5: chr5:128440902:128440903:+_ENSG00000066583_ENST00000173527|hu_mus|hu_hu_hu_mus_True|58_68 (ssRNA)
RNA: GGGAGUUCUACAGUCCGACGAUCUUGAACGGUGCUGCCAAGUCCUUUGGGGUAUUGUUCCGUUAUGAUAACAGGAAUUCCUAAAAUCCGAGCUCCUUGCAACAGUCUCUGUCCCACACUAAUGAUGUCCCCAAAGUAUUUGAUCAACAGAGGAUUGAGCAUCA
B6: chr4:57314706:57314707:+_ENSG00000128050_ENST00000264221|hu_mus|hu_hu_hu_mus_True|48_48 (ssRNA)
RNA: GGGAGUUCUACAGUCCGACGAUCCAGAAUUUCAAAAAUAGCUUGUGUGGCAUGACUCAUGAUGUCCACUUCAGUCUGCCCUAUAACAAGUCCAGCAAAACAGAAUUUUGCAGCAAUGAGUUGCUCCUCAGACCACUGUGGAUCCAACAGAGGAUUGAGCAUCA
B7: chr11:100882373:100882374:+_ENSMUSG00000019302_ENSMUST00000044721|mus_mus|mus_mus_mus_hu_True|28_68 (ssRNA)
RNA: GGGAGUUCUACAGUCCGACGAUCUUCCUGGUUUGUGUUGAUUUCCUUCAGUUCAUUUUCAAUCUUCUCGAAAUUGGCCUCUAAGUCAAUCAUGUCCCGGGGGAAGGGCACCUCUGGGUUUUCACCGGUGUCCAUAAUCGGAAUCAACAGAGGAUUGAGCAUCA
B8: chr6:38652254:38652255:-_ENSG00000124767_ENST00000373365|hu_hu|hu_hu_hu_mus_False|18_68 (ssRNA)
RNA: GGGAGUUCUACAGUCCGACGAUCCGAGAACUUCAUAGCAGGGAAGUCAAGCUUCUGCAGGAGGGUCAUUCCAAGAACCCUCGUAUAAAAAUCCAGGGACUUCUUAGGAUCCUUAAUUCGUAGCAUGGUUUGCUGCAGUAGAAACAACAGAGGAUUGAGCAUCA
B9: chr1:193053832:193053833:+_ENSG00000116747_ENST00000432079|hu_hu|FALSE|FALSE (ssRNA)
RNA: GGGAGUUCUACAGUCCGACGAUCGAUCACUGAUGGCAAUGGAUCUCUGGAUCGUGCUGCUGCUUAUGGUUAAAUCAUAUCUAAUGUGAAAUUUCGAAUUACAUCCAGAGCUCCAGUAUCAAAGCCGCACAUAUCCAACAUGCCCAACAGAGGAUUGAGCAUCA
B10: 92161760_92163732_446_CDS_ENSG00000127993_ENST00000265732|human|control|control (ssRNA)
RNA: GGGAGUUCUACAGUCCGACGAUCCUUUGUCACGUAAUGGUCUUUAUUUUCAGUAGUUUUUACUACAUAUGCCUUCCGCAUUUGUAGUUUUUUUCUAGUUUCUUCAACUGUUUCAAAUUCUGGAGCAUAGCACACAUGAAGCAACAACAGAGGAUUGAGCAUCA
B11: chr11:2966284:2966285:-_ENSG00000205531_ENST00000380542|hu_mus|FALSE|FALSE (ssRNA)
RNA: GGGAGUUCUACAGUCCGACGAUCGAGGGUGAACCCGAUGGCUCUGGCCUCAGAGGUGUGUGCCACAACCCACCCACCCCUAAAACCAAAACGCAAGAAAAAAAAUGCUCUAAGGCGAGCACAGCUUCCUCUACAGUGCUUGGGCAACAGAGGAUUGAGCAUCA
B12: chr4:57314706:57314707:+_ENSG00000128050_ENST00000264221|hu_mus|hu_hu_hu_mus_True|48_98 (ssRNA)
RNA: B6 RNA with U42C
B13: chr17:13112271:13112272:+_ENSMUSG00000068039_ENSMUST00000151287|mus_mus|motif|central (ssRNA)
RNA: GGGAGUUCUACAGUCCGACGAUCAAUCAGGUUCUCAUUGAUAUAACGCACCGCUUCCUUGCAGGCAAGACGAUAGCCACGGAUAACUGAUGUUGGAUGAAUUUUCUGUUUGACUAGCUCAUCUGCAUUUUUCAGAAGCUCCGCCAACAGAGGAUUGAGCAUCA
B14: chr11:87794392:87794393:-_ENSMUSG00000020483_ENSMUST00000020775|mus_mus|FALSE|FALSE (ssRNA)
RNA: GGGAGUUCUACAGUCCGACGAUCCACACCCACCCCUGCCCCAAGCCAUAGUCACAGUUCUGUGGAAUAUUCUCCCCGGUACUAGAGCCACCACCCCCCCCCCCACCUUCCUGCCCCUCUCCUUGCCAAUCCUAACCCUGUCCUCAACAGAGGAUUGAGCAUCA
B15: chr15:40510687:40510688:+_ENSG00000156970_ENST00000287598|hu_mus|motif|central (ssRNA)
RNA: GGGAGUUCUACAGUCCGACGAUCCCAGAGGAGUCCAUCCCAGAAGACAUGGAGGUGCUCCUUGAACAGGAGUAAGUGCGCGGGGUCUGCUAUACCCAACAGAUCUACAUGGUAGGGAGAAGAACAGUUAGCCAGGAUCUUUUGCAACAGAGGAUUGAGCAUCA
B16: chr7:99057753:99057754:-_ENSG00000241468_ENST00000394186|hu_mus|FALSE|FALSE (ssRNA)
RNA: GGGAGUUCUACAGUCCGACGAUCCCGGUCAUACCCUCUCCGAAAGGCUCCGGCAAUGCCACUGGGGGUGAAAUCCCGCAUCAUUAUCCAGCUCGGCAGCUCUCCAAGUUUGACUUCCAUGAGCUUCUUCUCCUUCAGCGGCACCAACAGAGGAUUGAGCAUCA
B17: chr3:176767854:176767855:-_ENSG00000177565_ENST00000430069|hu_hu|FALSE|FALSE (ssRNA)
RNA: GGGAGUUCUACAGUCCGACGAUCGACAUCCUUGUUGCUUGGAACAUCUUGCCCUCCUUCUCGUAUACAAUGUCUAAGUACUAACUGUGUAGAGCCACUGGUGCUGUUCUCACUAAGAUUCCAUAUUCUUGCUGUUGAGUCUCCCAACAGAGGAUUGAGCAUCA
B18: chr15:66169770:66169771:+_ENSG00000103769_ENST00000567671|hu_hu|motif|central (ssRNA)
RNA: GGGAGUUCUACAGUCCGACGAUCGUCCCAUAUCUGUGCCUUUAUUGUUUUUCCAUCAACCUGGAUGCUUCUUGUUGCAAACUCGGCUCCAAUGGUGCUCUUGCUUUCCAGAUUAAACUCAUUUCGAGUAAAUCGAGACAGGAGCAACAGAGGAUUGAGCAUCA
B19: chr15:83907240:83907241:-_ENSMUSG00000018865_ENSMUST00000082365|mus_mus|FALSE|FALSE (ssRNA)
RNA: GGGAGUUCUACAGUCCGACGAUCGCUGUGAAAGAUACUAAUUCUUGGUGCAGUCUGGCAUCUGUGGGGCCUCUUCCACACCUACCAGUGCCUUCAGAUGCCACCCGCAGCCUCGGGCCAGCUUCCCUGCCGAAACAUUCCUUGCAACAGAGGAUUGAGCAUCA
B20: chr1:220276048:220276049:+_ENSG00000067704_ENST00000302637|hu_hu|hu_hu_hu_mus_True|28_28 (ssRNA)
RNA: GGGAGUUCUACAGUCCGACGAUCGCAAAUUGCCUGGUUGGCGGGAAUUGUCCAAGGCUGGGUGGUCCAAACUAAAACGCUAACAGGGGAUGAGGCAUCUGUAAGAGAUGCCAAUUUCGGAGGAGGUCUCAGGAGGGGGAAUCUCAACAGAGGAUUGAGCAUCA
B21: chr4:83987663:83987664:+_ENSG00000138663_ENST00000264389|hu_mus|FALSE|FALSE (ssRNA)
RNA: GGGAGUUCUACAGUCCGACGAUCGCGUCCUUCCGUUAUCAUCUGAGAUGCUAUCUUUUCUGCCUUAGCUGCAGGGAUCUCUAAAAGAGCUCCAAGUUCUUCAAAGGUGAUAUUGUUAUAUAAUUUGCUUGCUGACAACAAAUUCAACAGAGGAUUGAGCAUCA
B22: 87593645_87610160_308_CDS_ENSG00000163629_ENST00000511467|human|control|control (ssRNA)
RNA: GGGAGUUCUACAGUCCGACGAUCAGGUUGGCUCUGAGGCACUUCAUAAUCAGCCCCCCAAUACAGUGUCAUUCCAAGAGAAUAAAUGUGGAUCUUUUCAACAUCUGAGAGAGAAGUUAGUGACUGAUUUUGAAGAACCUCUGGCAACAGAGGAUUGAGCAUCA

Residue numbers refer to the chain shown, from its start. The list shows a part of the results.

For the test, the target named is T1, UNK ZnF1-3. The experiment in a line: nsRBNS (natural sequence RNA bind-n-seq); RBNS binding buffer (assumed for nsRBNS): 25 mM Tris pH 7.5, 150 mM KCl, 3 mM MgCl2, 0.01% Triton X-100, 500 ug/ml BSA, 20 U/ml SUPERase-In, 4 C; UNK is unkempt and MSI1 is Musashi-1; names of the RNAs are library labels; protein concentration not given here; high values mean tight binding.
In turn, B1 returned a binding signal of 0.733 enrichment R.

B2 had a binding signal of 0.315 enrichment R.

Take B3: the binding signal was determined as 1.17 enrichment R.

In turn, B4 yielded a binding signal of 1.26 enrichment R.

Consider B5, for which the binding signal worked out at 1.01 enrichment R.

The molecule B6 gave a binding signal of 1.04 enrichment R.

In the case of B7, the binding signal came out at 0.488 enrichment R.

As to B8, the binding signal is 0.632 enrichment R.

For the molecule B9, the binding signal stood at 0.913 enrichment R.

As to B10, the binding signal was 0.553 enrichment R.

In the case of B11, the binding signal was 0.851 enrichment R.

For the molecule B12, the binding signal is 0.997 enrichment R.

Consider B13, for which the binding signal is 0.9 enrichment R.

For B14, the binding signal was found to be 1.01 enrichment R.

Regarding B15, the binding signal is 1.02 enrichment R.

Turning to B16, the binding signal turned out to be 0.838 enrichment R.

Regarding B17, the binding signal was 0.545 enrichment R.

With B18, the binding signal is 0.618 enrichment R.

The molecule B19 registered a binding signal of 0.819 enrichment R.

For the molecule B20, the binding signal was determined as 2.61 enrichment R.

In turn, B21 had a binding signal of 0.731 enrichment R.

B22: the binding signal is 0.735 enrichment R.
